Drawing on PubChem BioAssay AID463173 (ICCB-Longwood Screening Facility, Harvard Medical School, 2010), this text covers survival for 60 molecules.

Hit rate of the full screen: of about 52,000 compounds, about 1,700 (3.3%) were called active. No stated cut-off is given here; in the data, active means survival mostly below about 52% (no sharp cut-off); inactive means mostly above about 56%. Some of the results follow.

In this experiment the test system is Wild type. Put plainly: S. aureus survival, RN4220 and DeltatarO strains – OD600, teichoic acid synthesis inhibitors, primary screen (AID 463173). Particulars: S. aureus RN4220 wild type/DeltatarO growth, OD600, 18 h, hits give low values, screened at 18.75 µg/mL (by protocol).
With `Cc1ccc(CCNC(=O)c2sc3nc4n(c(=O)c3c2C)CCCC4)cc1`, the survival is inactive: 87%.

Consider `COc1ccccc1CNC(=O)c1ccc2c(c1)nc(C)n2-c1cccc(C)c1`, for which the survival is inactive: 88%.

Take `O=C1CCC(=O)N1CN1CCN(c2ccccc2)CC1`: the survival was inactive: 113%.

Regarding `Cc1ccc2c(c1)-c1c(cnc3cc(-c4ccc(Cl)cc4)nn13)CO2`, the survival is inactive: 61%.

As to `COc1ccc(NC(=O)C(C)N2Cc3ccccc3C2=O)cc1OC` (stereo not given), the survival was inactive: 75%.

For the molecule `COc1ccc(C(C)=O)cc1CSc1nc(NCc2ccccc2)c2ccccc2n1`, the survival is inactive: 85%.

As for `Cc1cccc(OCC(=O)Nc2ccc(NC(=O)c3ccco3)cc2)c1`, the survival is inactive: 112%.

`Cc1ccc2c(c1)c(=O)c1ccccc1n2CCCC(=O)Nc1ccc(C)c(C)c1`: the survival is inactive: 81%.

For `CC(C)CC(=O)n1nc(-c2ccco2)nc1NCc1ccc(Cl)cc1`, the survival is inactive: 83%.

For `CC1CCCCN1C(=O)CSc1nnc(CNc2ccc(Cl)cc2)o1` (stereo not given), the survival is inactive: 101%.

With `CC(C)OC(=O)c1ccc(NC(=O)CSc2nc(-c3cccs3)cc(C(F)(F)F)n2)cc1`, the survival is inactive: 75%.

`Cc1ccc(COC(=O)c2[nH]c3c(c2C)C(=O)CC(c2ccc(Cl)cc2)C3)cc1` (stereo not given): the survival was inactive: 84%.

On to `COc1ccc(Cn2c(C(=O)O)c(CNCc3ccc(C)o3)c3ccc(OC)cc32)cc1`, for which the survival is inactive: 79%.

Regarding `N=C(N)N=Nc1ccc(O)cc1`, the survival is inactive: 104%.

For `CCOc1ccc(NC(=O)c2ccc3nc(C(C)C)oc3c2)cc1`, the survival was inactive: 70%.

Take `COc1ccccc1OC(C)C(=O)N1CCC(c2nc3ccccc3s2)CC1` (stereo not given): the survival was active: -2%.

As to `COc1ccc(Cn2c(=O)c3ccccc3n3c(-c4ccc(C)cc4)nnc23)cc1`, the survival is inactive: 89%.

In the case of `CCc1cccc(NC(=O)Cn2nc(C)c3sc4ccccc4c3c2=O)c1`, the survival was inactive: 82%.

For `COc1ccc(NC(=O)c2cnc3sc(N4CCOCC4)nn3c2=O)c(OC)c1`, the survival was inactive: 66%.

On to `Cc1ccc(OCc2cc(=O)n3cc(C)sc3n2)c(NC(=O)c2ccco2)c1`, for which the survival was inactive: 88%.

Consider `COc1cc(C(=O)Nc2c(C(=O)Nc3ccccc3F)oc3ccccc23)cc(OC)c1OC`, for which the survival is inactive: 68%.

`O=C(O)c1cc(N2C(=O)C3CC=CCC3C2=O)ccc1NCc1cccnc1` (stereo not given): the survival was inactive: 115%.

Consider `Cc1ccc(C)c(NC(=O)Cn2cc(S(=O)(=O)NC(C)C)c(S(=O)(=O)NC(C)C)c2)c1`, for which the survival was inactive: 80%.

For the molecule `O=C(Nc1cccc(NC(=O)c2ccc(Br)cc2)c1)c1ccccc1`, the survival was inactive: 91%.

For the molecule `CCCn1c(NCc2ccccc2F)nc2ccccc21`, the survival is inactive: 89%.

Regarding `CCC(=O)N1c2ccc(S(=O)(=O)CCC(=O)N3CCN(c4ccc(F)cc4)CC3)cc2CC1C` (stereo not given), the survival was inactive: 79%.

For `COc1ccc2c(c1)CC(NC(=O)Nc1ccc(Br)c(C)c1)CO2` (stereo not given), the survival is inactive: 59%.

`COC(=O)COc1ccc(S(=O)(=O)N2CCC(C)CC2)cc1`: the survival is inactive: 102%.

`CCOC(=O)c1cc2c(=O)n3ccccc3nc2n(CC2CCCO2)c1=NC(=O)c1ccc(F)cc1` (stereo not given): the survival is inactive: 66%.

`N#CC1=C(N)NC(SCC(=O)Nc2ccc(Br)cc2)=C(C#N)C12CCCCC2`: the survival is inactive: 72%.

For `O=C(NCc1cccc(F)c1)c1ccc2nc(CCc3ccccc3)oc2c1`, the survival was inactive: 71%.

As for `COc1ccc(-c2nnc(SCC(=O)Oc3cc(C)ccc3C)o2)cc1`, the survival is inactive: 86%.

Consider `Cc1ccc(-c2nc(Cn3c(SCc4ccc(F)cc4)nc4cccnc43)c(C)o2)cc1`, for which the survival was inactive: 77%.

As to `COc1ccc(C(=O)Nc2nonc2-c2ccc(OC)c(OC)c2)cc1Cl`, the survival is inactive: 91%.

`CCCCCNC(=O)c1ccc2c(=O)n(CCc3ccccc3)c(=O)[nH]c2c1`: the survival was inactive: 72%.

Consider `CCOC(=O)N1CCc2c(sc(NCc3cccc(F)c3)c2C(=O)Nc2ccc(OCC)cc2)C1`, for which the survival was inactive: 73%.

Take `CCN(C(=O)c1cccn(Cc2cccc(Cl)c2)c1=O)c1ccccc1`: the survival was inactive: 77%.

With `COc1ccc(CNc2ncnc3c2c(-c2ccccc2)cn3-c2cccc(C)c2)cc1`, the survival was inactive: 74%.

With `O=C(Nc1ccc2ccccc2c1)C1CC(=O)N(C2CCCCC2)C1` (stereo not given), the survival was inactive: 116%.

Take `CC(=O)c1ccc(S(=O)(=O)N2CCn3cccc3C2c2ccc(F)c(F)c2)cc1` (stereo not given): the survival was inactive: 68%.

Turning to `CCc1cc(C(=O)NCc2ccc(F)cc2)no1`, the survival was inactive: 82%.

On to `Nc1nc(CSc2ccccn2)nc(Nc2ccccc2)n1`, for which the survival is inactive: 113%.

Consider `Cc1ccc(N2CC(NC(=O)C3CCCC3)CC2=O)cc1C` (stereo not given), for which the survival was inactive: 101%.

With `CC(C)Oc1ccc(CNC(=O)c2ccc3c(c2)N(C)C(=O)C2CCCCN32)cc1` (stereo not given), the survival is active: 10%.

In the case of `Cc1cc(=O)c2c(o1)CC(C)(C)CC2=O`, the survival is inactive: 110%.

In the case of `CCN1CCN(c2cc(C)c3cc(NC(=O)/C=C/c4ccc(OCCC(C)C)cc4)ccc3n2)CC1`, the survival was inactive: 118%.

Turning to `O=C(COc1ccccc1Cl)Nc1nc(-c2ccc(F)cc2)ns1`, the survival is inactive: 68%.

As for `CCO/C(C)=N\Oc1nc2nonc2nc1O/N=C(/C)OCC`, the survival was inactive: 109%.

For `COc1cccc(NC(=O)C2CCN(S(=O)(=O)c3c(C)noc3/C=C/c3cccs3)CC2)c1`, the survival was inactive: 84%.

In the case of `C#CCNc1ccccc1`, the survival is inactive: 109%.

For the molecule `Cc1ccc(NC(=O)CSc2nc(C3CCCC3)nc3c2c(=O)n(C)c(=O)n3C)c(C)c1`, the survival is inactive: 75%.

For `CCc1nnc(SCc2nc(-c3cccc(C)c3)oc2C)c2cc3sc(C)cc3n12`, the survival was inactive: 94%.

For the molecule `COc1ccc(C(=O)Nc2cc(NC(=O)c3ccco3)ccc2OC)cc1Cl`, the survival is inactive: 69%.

Consider `O=C(CSc1nccn1-c1ccc(F)cc1)Nc1cccc2ccccc12`, for which the survival was inactive: 94%.

For the molecule `CC(=O)Oc1ccccc1C(=O)N1CC(C)OC(C)C1` (stereo not given), the survival is inactive: 97%.

In the case of `CCOC(=O)c1c(-c2ccccc2)oc2cc(Br)c(OCc3ccccc3)cc12`, the survival was inactive: 57%.

Consider `CCn1c(=N)c(C(=O)NC2CCCC2)cc2c(=O)n3cc(C)ccc3nc21`, for which the survival was inactive: 67%.

On to `Cc1ccc(OCCCCn2nnc3sc4c(c3c2=O)CCC(C)C4)cc1` (stereo not given), for which the survival was inactive: 94%.

`CC(C)CNS(=O)(=O)c1ccc(S(=O)(=O)N2CCCN(Cc3ccccc3)C2)cc1`: the survival is inactive: 97%.

With `Cc1ccc(Cl)cc1Nc1nn2c(=O)c3ccc(C(=O)NC4CCC(C)CC4)cc3nc2s1` (stereo not given), the survival is inactive: 143%.
